# Source: PubChem BioAssay AID1468 (National Center for Advancing Translational Sciences (NCATS), 2008)
# About 1,100 (0.39%) of roughly 280,000 compounds were called active. The shares of active, inactive and inconclusive entries below differ from those in the screen. Calls follow the shape of the dose curve; as a rule, active = well fitted inhibition curve with a large enough effect; inconclusive = small, poorly fitted or top-dose-only effect, or effect the other way; inactive = flat fitted curve, though single readings scatter. No potency is given beside an inconclusive call; the fits are too rough.
# Biological target: Microtubule-associated protein tau (Homo sapiens) (UniProt P10636)
# Assay: qHTS for Inhibitors of Tau Fibril Formation, Fluorescence Polarization; also: nearly all actives have a fitted effect of over 55% in size
# Conditions: K18 P301L tau heparin fibrillization, Alexa594 FP, 6 h; series mostly up to 57.7 µM; activity, negative = inhibition: at the top concentration
# Outline: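 Read-out: fluorescence polarization of Alexa 594-labeled tau (0.24 uM), 555 nm excitation, 632 nm emission. Mixtures held 15 uM unlabeled K18 P301L, compound and 20 uM heparin, pH 7 acetate buffer, incubated 6 hr at 37 C.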
# % is scaled to controls: 0 for no effect and ±100 for the full control effect; potency is read from the fitted curve at half-maximal effect; tags tell the direction and shape of the fitted curve.
# Chain of UniProt P10636 (P10636 whole entry, looked up): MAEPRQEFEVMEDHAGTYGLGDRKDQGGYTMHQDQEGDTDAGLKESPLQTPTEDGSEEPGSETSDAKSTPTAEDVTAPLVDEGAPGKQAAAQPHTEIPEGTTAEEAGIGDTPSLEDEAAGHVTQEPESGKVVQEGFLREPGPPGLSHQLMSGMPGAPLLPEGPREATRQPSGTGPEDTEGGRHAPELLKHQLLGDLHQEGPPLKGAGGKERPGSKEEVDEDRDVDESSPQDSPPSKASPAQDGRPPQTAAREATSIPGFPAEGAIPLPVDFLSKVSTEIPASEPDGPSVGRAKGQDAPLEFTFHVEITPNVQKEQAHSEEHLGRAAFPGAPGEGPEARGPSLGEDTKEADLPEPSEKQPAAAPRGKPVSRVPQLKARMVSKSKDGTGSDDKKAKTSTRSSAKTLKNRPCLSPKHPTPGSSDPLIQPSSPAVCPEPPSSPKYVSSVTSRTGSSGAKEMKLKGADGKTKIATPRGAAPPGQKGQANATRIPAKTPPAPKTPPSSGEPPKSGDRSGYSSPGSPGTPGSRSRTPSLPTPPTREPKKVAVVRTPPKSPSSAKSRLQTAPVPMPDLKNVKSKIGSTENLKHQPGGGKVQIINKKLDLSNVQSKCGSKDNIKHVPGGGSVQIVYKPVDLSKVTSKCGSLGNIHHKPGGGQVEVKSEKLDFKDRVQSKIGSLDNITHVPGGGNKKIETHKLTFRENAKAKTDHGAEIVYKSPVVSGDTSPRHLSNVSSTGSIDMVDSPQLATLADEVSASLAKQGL
SMILES,"activity, negative = inhibition",Potency
COc1ccc(C(=O)CCC(=O)N2CCN(c3ccc(N4CCOCC4)nn3)CC2)cc1,inactive: -8.62%,
Cn1c(SCC(=O)c2ccc(O)c(O)c2)nnc1-c1cccs1,,"inconclusive [inhibitor, single point]"
O=C(COc1ccccc1)c1cn(CC(=O)N2CCOCC2)c2ccccc12,,"inconclusive [inhibitor, single point]"
CCOc1ccc(NC(=S)N(Cc2ccc(N(C)C)cc2)Cc2ccco2)cc1,,"inconclusive [activator, single point]"
Clc1cccc(Cl)c1CSc1nnc(CN2CCOCC2)n1-c1ccccc1,inactive: 2.58%,
Cn1c2c(c(=O)n(C)c1=O)C(c1ccc(F)cc1)C(C#N)=C(N)O2 (centres undefined),,"inconclusive [inhibitor, partial curve]"
CCCCC(=O)NC(=S)Nc1nnn(CCC)n1,inactive: 2.21%,
C=C1SC(=Nc2c(C)cc(C)cc2C)N(C(=O)c2sc3ccccc3c2Cl)C12CCCCC2,,"inconclusive [inhibitor, single point]"
Cc1ccc(-c2nnc(SCC(=O)NCc3ccccc3)o2)cc1,inactive: -13.4%,
CCN(CC)CCN(C(=O)c1ccco1)c1nc2ccc(F)cc2s1,inactive: -3.97%,
O=C(Nc1cccc(Cl)c1)N1CCN(C2c3ccccc3-c3ccccc32)CC1,,"inconclusive [inhibitor, single point]"
CCOc1ccc(S(=O)(=O)n2cc(F)c(=O)[nH]c2=O)cc1,inactive: 6.23%,
Cc1cc(C(=O)NCc2cc(C(=O)O)oc2C)c(C)o1,,"inconclusive [inhibitor, single point]"
COC(=O)c1[nH]c2ccc(C)cc2c1NC(=O)Nc1ccc(OC)cc1,,"inconclusive [activator, partial curve]"
CCOC(=O)c1cc2sccc2n1CC(=O)c1ccc2c(c1)OCCO2,,"inconclusive [inhibitor, partial curve, poor fit]"
CCN(CC(=O)Nc1ccc(OC)cc1)CC(=O)Nc1ccc(Br)cc1F,,"inconclusive [inhibitor, full curve, poor fit]"
CC(Oc1ccccc1)C(=O)Nc1c(C(=O)Nc2cccc(F)c2)oc2ccccc12 (centres undefined),,active: 10 µM
Cc1ccc(C)c(N2CCN(S(=O)(=O)c3cc(C(=O)Nc4ccccc4C(F)(F)F)ccc3F)CC2)c1,,"inconclusive [inhibitor, partial curve]"
Cc1ccc(N2C(=O)[C@@H]3[C@H](C2=O)C2c4ccccc4C=CN2[C@@H]3C(=O)c2ccco2)c(C)c1 (some centres undefined),,"inconclusive [inhibitor, partial curve]"
CC(=O)c1cccc(NC(=S)NCc2ccco2)c1,,"inconclusive [inhibitor, partial curve, poor fit]"
CCc1ccc(/C=N/NC(=O)c2cc(C)on2)s1,inactive: -5.04%,
Cc1c(CN(C)C)c2c(n1C)C(=O)c1ccc(Br)cc1-2,inactive: 7.14%,

SMILES,"activity, negative = inhibition",Potency
O=C(Nc1ccc(Cl)cc1)Nc1ccc(S(=O)(=O)Nc2ncccn2)cc1,,"inconclusive [inhibitor, single point]"
c1ccc(CN2CCC(Nc3nc(-c4cccs4)nc4ccccc34)CC2)cc1,,"inconclusive [inhibitor, single point]"
O=C(Nc1ccc(Cl)cc1)[C@@H]1[C@@H]2C(=O)N(c3ccc(Cl)cc3)C(=O)[C@@H]2[C@H]2C=CC=NN21,inactive: -3.81%,
CCOc1cc(/C=N\NC(=O)c2ccc(NC(=O)CC)cc2)ccc1OC(=O)c1ccccc1,,"inconclusive [inhibitor, full curve]"
COc1ccccc1CNC(=O)Cc1c(C)c2cc3c(C)coc3c(C)c2oc1=O,inactive: -2.95%,
Cc1ccccc1Cn1c(=O)n(Cc2ccco2)c(=O)c2sc3ccccc3c21,inactive: -4.92%,
O=C(CSc1nc2ccc([N+](=O)[O-])cc2[nH]1)NCCc1ccccc1,inactive: 1.48%,
COc1ccc(Cl)cc1NC(=O)Cn1c(=O)n(-c2ccc(C)cc2)c(=O)c2ccc(C(=O)NCc3ccccc3Cl)cc21,,"inconclusive [inhibitor, partial curve, poor fit]"
COc1ccc(S(=O)(=O)NCC2CCCN(CC(C)(C)C)C2)cc1 (centres undefined),inactive: -0.86%,
COc1ccc(CCNC(=O)c2cc(Nc3ccccc3)nc3ccccc23)cc1OC,,"inconclusive [inhibitor, single point]"
Cc1ccc(-n2c(SCC(=O)N3Cc4ccccc4CC3C(=O)O)nnc2-c2cccnc2)c(C)c1 (centres undefined),,"inconclusive [inhibitor, full curve, poor fit]"
S=c1[nH]c(-c2ccccc2)cn1/N=C/c1ccncc1,inactive: -9.03%,
COc1cc(OC)c(NC(=O)Cn2cccc2)cc1Cl,inactive: -4.47%,
COc1ccc2oc(=O)c(-c3cn4ccc(C)cc4n3)cc2c1,inactive: 3.08%,
O=C(Nc1ccc(Oc2cccc3ccccc23)cc1)c1ccco1,,"inconclusive [inhibitor, partial curve]"
Cc1ccc(NC(=O)Cn2c(=O)n(Cc3ccc(F)cc3)c(=O)c3cccnc32)cc1C,,"inconclusive [inhibitor, single point]"
O=C(Nc1ccc(S(=O)(=O)N(Cc2ccccc2)c2ccccc2)cc1)c1ccccc1F,,"inconclusive [inhibitor, full curve, poor fit]"
O=C(Cc1csc(N2CCOCC2)n1)N/N=C/c1ccc(O)c(O)c1O,,active: 31.6 µM
O=C(CSc1nc(-c2cccs2)cc(C(F)(F)F)n1)Nc1cc(OCC(F)(F)C(F)F)cc([N+](=O)[O-])c1,,"inconclusive [inhibitor, partial curve, poor fit]"
CC(=O)n1c2c(c3ccccc31)OC(N)=C(C#N)C2c1ccc(C(C)C)cc1 (centres undefined),,"inconclusive [inhibitor, single point]"
CC(=O)c1ccc(NC(=O)C2CCN(S(=O)(=O)c3c(C)noc3/C=C/c3ccc(C)cc3)CC2)cc1,,"inconclusive [inhibitor, partial curve]"
Cc1ccc(C2=NC(C)(C)N=C2SCC(=O)Nc2ccc(Cl)cc2)cc1,,"inconclusive [inhibitor, full curve]"
